Data reported in the supplement of paper PMC10600219.
Counter-ions that a name gives are not always drawn. Over roughly 2,800 compounds, “cell viability relative to vehicle” has its median near 0.98; the lowest 2% begin near 0.45. The list shows a part of the results.

test system: NCI-H2228 alectinib-DTP; experiment: cell viability relative to vehicle (fraction of vehicle); NCI-H2228 is an ALK-positive lung cancer line and DTP means drug-tolerant persister; higher = less growth inhibition; details: 100 nM; treatment time 6 days
Procedure, shortened: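 Each value is viability relative to vehicle-treated cells, measured as ATP with the CellTiter-Glo 3D Cell Viability Assay. Parental NCI-H2228 cells and drug-tolerant persisters (1000 nM targeted drug, 13 days) in 384-well plates received the 3114-agent TargetMol anti-cancer compound library at 100 nM, or DMSO, and were read 6 days later.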

Question: For `COc1nc(OCc2cccc(-c3ccccc3)c2C)ccc1CNCCNC(C)=O` [PD1-PDL1 inhibitor 2], which cell viability is on record?
Answer: 0.928

Question: `CC[C@@H]1C(=O)OC[C@@H]1Cc1cncn1C` [Pilocarpine nitrate] was tested. Which cell viability did it give?
Answer: 1.01

Question: Which cell viability does the source give for `CC[C@@H]1C(=O)OC[C@@H]1Cc1cncn1C` [(+)-Pilocarpine hydrochloride] here?
Answer: 0.933

Question: `Oc1ccc(C(c2c[nH]c3ccccc23)c2c[nH]c3ccccc23)cc1` was tested. Which cell viability did it give?
Answer: 1.08

Question: Which cell viability does the source give for `CN1CCc2c(c3ccccc3n2Cc2ccc(C(=O)NO)cc2)C1` [Tubastatin A HCl] here?
Answer: 0.892

Question: `Cc1c(CN2CCN(C(=O)[C@H](C)O)CC2)sc2c(N3CCOCC3)nc(-c3cnc(N)nc3)nc12` [Apitolisib] was tested. Which cell viability did it give?
Answer: 0.434

Question: Which cell viability does the source give for `CN1C(=O)CC[C@H]1c1cccnc1` [(-)-Cotinine] here?
Answer: 1.08

Question: Which cell viability does the source give for `CC(C)(CO)c1cc2cc(NC(=O)C3(c4ccc5c(c4)OC(F)(F)O5)CC3)c(F)cc2n1C[C@@H](O)CO` here?
Answer: 1.03

Question: For `OCc1c[nH]c2ccccc12` [Indole-3-carbinol], which cell viability is on record?
Answer: 0.81

Question: `O=C(Nc1ccccc1)C12CC1C(=NO)c1ccccc1O2` (stereo not drawn) was tested. Which cell viability did it give?
Answer: 1.01

Question: For `Cc1ccc(C(=O)Nc2ccc(Oc3cc4cnn(C)c4cc3-c3cn[nH]c3)c(F)c2)c(=O)n1-c1ccc(F)cc1` [Merestinib], which cell viability is on record?
Answer: 0.924

Question: With `N#CCNC(=O)c1ccc(-c2ccnc(Nc3ccc(N4CCOCC4)cc3)n2)cc1` [Momelotinib] as the molecule, how does the cell viability read?
Answer: 0.902

Question: For `CS(=O)(=O)OCCCCOS(C)(=O)=O` [Busulfan], which cell viability is on record?
Answer: 0.959

Question: With `O=C(/C=C/c1ccc(O)cc1)c1ccc(O)cc1O` [Isoliquiritigenin] as the molecule, how does the cell viability read?
Answer: 1.26

Question: With `N#Cc1ccc(-c2csc(NN=C3CCCC3)n2)cc1` [Remodelin hydrobromide] as the molecule, how does the cell viability read?
Answer: 1.09

Question: With `Cc1c(NC(=O)c2cccnc2)c(=O)n(-c2ccccc2)n1C` [Nifenazone] as the molecule, how does the cell viability read?
Answer: 1.02

Question: With `Cc1ncc(-c2ccnc(Nc3ccc(S(C)(=O)=O)cc3)n2)n1C(C)C` as the molecule, how does the cell viability read?
Answer: 0.914

Question: Which cell viability does the source give for `Nc1c(S(=O)(=O)c2ccccc2)c2nc3ccccc3nc2n1-c1ccc(F)cc1` here?
Answer: 1.11

Question: `N[C@@H](Cc1c[nH]c2ccccc12)C(=O)O` [L-Tryptophan] was tested. Which cell viability did it give?
Answer: 1.1

Question: With `Cc1ccc2nc(CN(CCN(Cc3nc4ccc(C)cc4[nH]3)Cc3nc4ccc(C)cc4[nH]3)Cc3nc4ccc(C)cc4[nH]3)[nH]c2c1` as the molecule, how does the cell viability read?
Answer: 1

Question: How did the cell viability turn out when `CCc1ccc(-c2nc(CSCC(=O)NCCc3ccccc3)c(C)o2)cc1` was run?
Answer: 1.08

Question: `C=C1CC[C@@H]2[C@](C)(CO)[C@H](O)CC[C@@]2(C)[C@@H]1C/C=C1/C(=O)OC[C@H]1O` [Andrographolide] was tested. Which cell viability did it give?
Answer: 0.928

Question: `Cc1cn([C@H]2C=C[C@@H](CO)O2)c(=O)[nH]c1=O` [Stavudine] was tested. Which cell viability did it give?
Answer: 1.02
